# Reference: ChEMBL document CHEMBL4888484, “Replenishing the malaria drug discovery pipeline: Screening and hit evaluation of the MMV Hit Generation Library 1 (HGL1) against asexual blood stage Plasmodium falciparum ,using a nano luciferase reporter read-out” (2022)
# Hit rate of the full screen: of about 150,000 compounds, about 540 (0.36%) showed an effect of 50% or more. The list shows a part of the results.
# Test system: Plasmodium falciparum
# Experiment: Primary screen in NF54 nanoGlo assay, in single point, at 2uM, 72h; a lower Z score goes with more inhibition
# Format: functional, Erythrocyte
# Conditions: timepoint 72 hour
SMILES,% Inhibition,Z score
CC(C)(NS(=O)(=O)C1COC1)c1ccc(Cl)cc1,-4%,0.42
COc1ccc(/C=C\c2onc(C)c2NC(C)=O)cc1S(=O)(=O)N(C)c1ccc(C)cc1,2%,-0.35
C=CCN1CC[C@@]2(CCC1=O)CN(C(=O)N(C)c1ccccc1)CCN2C,-7%,1.09
CCC(=O)NCC(=O)N1CCCCCCNC(=O)C[C@H]1c1ccccc1,-1%,0.1
CCCNC(=O)c1nc(C)c(C)nc1C(=O)Nc1ccc(C)cc1,-42%,4.94
Cc1occc1C(=O)NC(c1ccc(F)cc1)[C@H]1C[C@@H](O)C1 (stereo partly specified),7%,-1.07
Cc1sc(C(=O)N(C)C[C@H](O)C2CC2)cc1-c1ccc(F)cc1,3%,-0.53
CNc1ccc(C(=O)NCC2(O)CCC(C)CC2)cn1 (stereo unspecified),12%,-1.34
COCCn1c(C(=O)NC(C)(C)C)cc2c(OCc3ccccc3)cccc21,-10%,1
Cc1cc(C)c([C@H]2CC(=O)Nc3n[nH]cc32)cc1Cn1cncn1,-11%,1.82
C[C@H]1Cc2c(NC(=O)c3ccc(S(=O)(=O)N(C)C)cc3)nn(C)c2NC1=O,7%,-0.96
C[C@H]1CN(c2ncccc2Br)CCN1S(C)(=O)=O,-6%,0.63
CCCS(=O)(=O)N(C)[C@@H](CC)c1ccccn1,-4%,0.7
COC(=O)c1n[nH]cc1CN1CC[C@@]2(C1)CN(C)C(=O)O2,2%,-0.31
CCn1nc(C(=O)N2CCCCC2)c2c1CC[C@H](O)C2,10%,-1.95
Cc1nnc(-c2cc(C(C)C)n(-c3cccc(C(=O)NC[C@@H](C)c4ccccc4)c3)n2)o1,-11%,1.5
N#CC1(NC(=O)c2cccc(C(=O)NC3CC3)c2)CCCCC1,-22%,2.71
C[C@H](NC(=O)c1ccoc1)C(=O)Nc1cc(C(F)(F)F)ccc1O,6%,-1
CCc1ccccc1NC(=O)CN1C(=O)CCCc2cc(S(=O)(=O)N3CCCC3)ccc21,-7%,1.16
Cn1c(=O)c2c(-c3ccc(Cl)cc3)n(-c3cccc4cccc(N)c34)cc2n(C)c1=O,96%,-11.21
Cc1ncsc1CCNC(=O)N(C)C1CCS(=O)(=O)CC1,3%,-0.26

SMILES,% Inhibition,Z score
O=C(Nc1ccc(N2CCCCC2)cc1)c1sc2ccccc2c1Cl,-13%,1.73
CC(C)(C)C1CCC(CN2CC(O)C(N3CCCC3)C2)CC1 (stereo unspecified),16%,-2.2
Cc1ccc2c(c1)CCCN2S(=O)(=O)c1ccc(N2CCCC2=O)cc1C,-2%,0.22
CCn1nc(C)cc1S(=O)(=O)NCc1noc(C2CC2)n1,-4%,0.55
Cc1nn(C)c2nc(NCc3cc(CC(C)C)no3)sc12,1%,-0.16
O=C(N[C@@H]1[C@@H]2CCO[C@@H]2[C@H]1N1CCCCC1)c1cccc(OC(F)F)c1,-7%,1.04
Cc1cc(NCc2cnc3n2CCC3)ncn1,-4%,0.69
C/C(=N\S(=O)(=O)c1ccc(Cl)cc1)Nc1ccc(O)c(C)c1C,-11%,1.3
COc1ccc(/C=C/c2nc(-c3ccc(S(=O)(=O)N4CCCC4)cc3)no2)cc1,-5%,0.84
Cc1cn2c(=O)cc(CN3CC[C@](C)(O)[C@@H](O)C3)nc2s1,-9%,1.63
CCc1nn(C)c(Cl)c1CN1CCc2nocc2C1,-13%,1.17
O=C(NC[C@H]1COC2(CCOCC2)O1)c1ccc(OCc2cccs2)cc1,-2%,0.29
O=S(=O)(c1ccccc1OC(F)(F)F)N1CC(Oc2cccnc2)C1,-3%,0.36
COc1ccc(CCNC(=O)CN2CCC3(CC2)[C@H](O)C[C@@H]3OC)cc1,-10%,1.98
O=C1Cc2cc(S(=O)(=O)N3CCNCC3)ccc2N1,-4%,0.79
COc1cn(CC(=O)NC[C@H]2CCCO2)c(CN2CCCCC2)cc1=O,-1%,0.27
COC(=O)CC[C@H](NC(=O)C1CCCN1c1nc(C)c2ccccc2n1)C(=O)OC (stereo partly specified),-7%,1.31
Cc1cccc(OC[C@@H](O)Cn2c(NC3CCCCC3)nc3c2c(=O)n(C)c(=O)n3C)c1,-2%,0.31
CO[C@@H](CNC(=O)C(C)(C)C)c1cc2ccccc2o1,-15%,1.73
C[C@@H]1CN(CC2OCCO2)C[C@H](C)N1CC1OCCO1,-9%,1.07
O=C(c1csc2nc(-c3ccccc3)cn12)N1CCN[C@@H]2CS(=O)(=O)C[C@@H]21,-9%,1.67

SMILES,% Inhibition,Z score
CS(=O)(=O)N1CCOC2CCCCC21 (stereo unspecified),-19%,2.35
CC(C)c1cc(Br)n(C[C@H]2COCCO2)n1,1%,-0.23
Cc1ccc(-c2nc(NC(=O)COc3ccccc3C)no2)cc1,-7%,1.24
O=C(Cc1csc(NC(=O)C2CCCC2)n1)NC1CCN(Cc2ccccc2)CC1,-17%,1.96
c1cn(-c2ccc3c(c2)OCO3)c(-c2ccc(-c3cc[nH]n3)o2)n1,-11%,2.15
COCCN(CC1(C)CCOCC1)C(=O)[C@H](C)Oc1ccccc1,0%,-0.01
CC(C)(C)n1nnc(CNC(=O)N[C@H]2CCCc3c(F)cccc32)n1,6%,-1.01
Cc1cccc([C@@H](NC(=O)c2cccn2C2CC2)C(=O)O)c1,1%,-0.16
C[C@H](NC1CCN(c2ncnc3[nH]cnc23)CC1)c1nnc(N)s1,-7%,1.37
COCCc1ncc(CN2CCC(CC(=O)N(C)C)CC2)cn1,5%,-0.66
Cc1ccc2occ(CC(=O)N[C@H]3CCC(=O)N[C@@H]3c3ccnn3C(C)C)c2c1,-11%,1.23
C[C@H]1CN(C(=O)c2cc(C3CC3)[nH]n2)CCO1,-5%,0.43
CCn1cc(CC(=O)Nc2ccc(C)cc2)c2cccnc21,-22%,2.54
COCCN1CCC[C@H](NC(=O)C(=O)Nc2cccc(Cl)c2)C1,-9%,1.77
Cc1cc(=O)n(C)cc1NC(=O)NCc1ccco1,1%,-0.08
CC(C)c1ccc(C#N)c(NCc2noc(C3CC3)n2)n1,-4%,0.39
COc1ccc(CC(=O)N2CCOCC2C2CCCC2O)cc1 (stereo unspecified),-3%,0.33
C[C@H](O)c1cc2n(n1)CCCN(Cc1ccc(OCCN3CCOCC3)cc1)C2,-3%,0.67
C=CCCC(=O)N1CCC([C@H]2OCC[C@@H]2NC(=O)C(F)(F)F)CC1,9%,-1.03
CC(C)=CCC/C(C)=C/CN1CC[C@H](O)[C@@H](O)C1,9%,-1.68
COCCN(CC1CC1)C(=O)N[C@@H](C)c1cc(F)cc(F)c1,2%,-0.25

SMILES,% Inhibition,Z score
COCc1nc(C)c(C(=O)OCC(C)(C)OCC(C)(C)F)s1,1%,-0.18
Cc1ccc(CNC(=O)C2CCC2)n1C,-2%,0.18
CC(C)OCCCNC(=O)Nc1cccc(Br)c1,4%,-0.69
O=C(N[C@H]1C[C@H]2OCC[C@@H]12)c1cc(Cl)ccc1F,-2%,0.33
COc1cc(-c2c(-c3ccccc3)ncn2Cc2noc(C(C)C)n2)ccc1O,-12%,2.1
Cc1cc(C)nc(O[C@H]2CC[C@H](NC(=O)c3ccno3)CC2)n1,-11%,1.94
COC(=O)c1cccc(/N=C(/NCCc2c(C)nn(C)c2C)NC(=O)c2cccc(C)c2)c1,2%,-0.4
O=C(Cn1cnc(-c2nc(-c3ccccc3)cs2)c1)NCc1ccc2c(c1)OCO2,-2%,0.36
CC(C)c1ccc(Cc2nnc(N3CCOCC3)[nH]c2=O)cc1,-10%,1.12
CN(C)S(=O)(=O)N1CCC(c2nc(C(F)(F)F)c[nH]2)CC1,31%,-3.54
CN(Cc1ccncc1)C(=O)[C@@H]1CCO[C@H]1c1ccc(Cl)c(F)c1,-1%,0.11
C=CCn1cnc2c1c(=O)n(C[C@H]1CCCO1)c(=O)n2-c1ccccc1C,-9%,1.09
CNc1cc(-c2cccc(C(=O)NCCN3CCCC[C@@H]3CO)c2)nc(N)n1,9%,-1.22
COc1cccc(CN2CCNC(=O)[C@@H]2CC(=O)NCCc2cccc(Cl)c2)c1OC,-20%,1.81
CCCC[C@@H](C(=O)Nc1ccc(Cl)c(OC)c1)N1CCCS1(=O)=O,-34%,3.98
COc1ccc(S(=O)(=O)N2CCCN(C)c3ccccc32)cc1Cl,-16%,1.73
NC(=O)c1ccc(NC(c2ccc(F)cc2F)[C@H]2C[C@@H](O)C2)nc1 (stereo partly specified),-14%,1.93
COc1cc(NC(=O)CCN2CCN3CCCC[C@H]3C2)cc(OC)c1,-2%,0.36
COC(=O)C[C@H](c1cccnc1)c1c(Cc2ccc(OC)cc2)[nH][nH]c1=O,-8%,1.04
Cc1ccccc1[C@H]1CN(Cc2ccc(N(C)C)nc2)C[C@@H]1C(=O)O,3%,-0.38
